Test results published in article PMC12136788.
Some of the results follow.

T1: UNK ZnF1-3 (human, UniProt Q9C0B0 31-174)
T1 sequence: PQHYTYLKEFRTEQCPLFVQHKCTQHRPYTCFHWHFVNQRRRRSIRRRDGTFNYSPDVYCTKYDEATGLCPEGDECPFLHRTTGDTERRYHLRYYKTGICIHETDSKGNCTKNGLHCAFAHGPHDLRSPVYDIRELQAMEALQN

B1: 131177157_131177277_6978_3pUTR_ENSG00000128585_ENST00000352689|human|control|control (ssRNA)
RNA: GGGAGUUCUACAGUCCGACGAUCCUCAAGCAAUCUUCCCGUGUCAGCCUCCCAAAGGUCUGGGAUUACAGGCGUGAGUCACUAUGCCCAGCCUAAAUUCACAUUCUUGAGGGGAAGAGACAUAUAUAAGGCUGCAUUAUUUUUCAACAGAGGAUUGAGCAUCA
B2: chr5:145543945:145543946:-_ENSG00000133706_ENST00000545646|hu_hu|hu_hu_hu_mus_True|38_78 (ssRNA)
RNA: GGGAGUUCUACAGUCCGACGAUCCUGAACGGCCAGUGGUGGGAAAUAAUCAAGCCAAUGUUCUGCUUCAGAAAACUUCACUAUGUCGUCAUCAGAGAGGCCAAGGGAUUUCAUAAUGUCCCACUGGUACUUAGAAGAUCCUGCCAACAGAGGAUUGAGCAUCA
B3: chr17:5336369:5336370:-_ENSG00000108561_ENST00000225698|hu_hu|FALSE|FALSE (ssRNA)
RNA: GGGAGUUCUACAGUCCGACGAUCGGCUUUCAGCAUCUGUCUGCUCUACUGGCUCUUGACAAAACUCUUGAGGUCUUCAAGAAAAGUAAUGUACUCCUGGUGCUCCAGGGCUGUGCUGAGCUCCACCAGCUCAUCUGCAAAAGUCAACAGAGGAUUGAGCAUCA
B4: 46582372_46582492_2479_3pUTR_ENSG00000111371_ENST00000398637|human|control|control (ssRNA)
RNA: GGGAGUUCUACAGUCCGACGAUCGUAGGAAAAUUAUUUCAGAAUCUGGAUGUAUAAUAAAUAAACAUUAUUGUAUAUCAUGUUUUCAAAGUUCUAAGAGACCGGGAAGCCACAAAACAUAGAGUUAGAUGGGUAAAAAAUGAUCAACAGAGGAUUGAGCAUCA
B5: chr12:76570751:76570752:-_ENSMUSG00000021051_ENSMUST00000021447|perfect_dup|FALSE|FALSE (ssRNA)
RNA: GGGAGUUCUACAGUCCGACGAUCUGUUUCAUAAACAAACCUUAGAAAAAUAUUGUUAAUUUGUUUUCGGAUAAAUGCUCUAAGCCCGAGAAACUUGCCAUAAAUCCUGUGCAAGACUGUUUUUAAAUAGUCCCGUUCUCGAGGCAACAGAGGAUUGAGCAUCA
B6: 12980288_12982455_1297_CDS_ENSG00000213782_ENST00000358007|human|control|control (ssRNA)
RNA: GGGAGUUCUACAGUCCGACGAUCAGCCACCUUGUUCCUGACACCAAUAGCACCCUCUGUGUCAUCAUUAUCUCCAGCAUCCUCUCGCGAGCGUUUCUUCUUUUCUCCAUGCUCCCUUAACUCCAUUCGGGCAAACCUUUGGGCCAACAGAGGAUUGAGCAUCA
B7: 30271051_30271171_222_3pUTR_ENSMUSG00000026853_ENSMUST00000028207|mouse|control|control (ssRNA)
RNA: GGGAGUUCUACAGUCCGACGAUCUCACGGGGCGGAGCUUUGGUGGCUCGCAGUCCCCGGCCGCUCGCCCCGAUCUCGGGGUGGGCCCAAGCCGGGGAGUGGCCGCAGAGGGCGGGGCUUGCGGAGACGGACCUCUAGCUCAGCCAACAGAGGAUUGAGCAUCA
B8: chr11:120422317:120422318:-_ENSMUSG00000025130_ENSMUST00000026122|mus_hu|FALSE|FALSE (ssRNA)
RNA: GGGAGUUCUACAGUCCGACGAUCCUGCCUGGAGAUGGAUCCCUUUCCAAAAACCGAAAAGCAGAAGGAAGAGACGGGGGUGAACGGACGGUGUGUAGGGGUGAGGUGUCACUUCAGAGAGGUUCCCUGGGUUUCCGGCGACGCCAACAGAGGAUUGAGCAUCA
B9: chr4:42069135:42069136:+_ENSG00000014824_ENST00000513699|hu_hu|motif|central (ssRNA)
RNA: GGGAGUUCUACAGUCCGACGAUCGCUGCUAUUAUAACUCCCAAGACUGCAGCAGUAUCCUCCAAUAAUAUCACAUUUGUACGGGGAUCACGACUUUCCAUUACAUACUUGUAAAAUGACAUUCCUUUAGCCCGAGCAUUCCUACAACAGAGGAUUGAGCAUCA
B10: 116024381_116024501_2413_3pUTR_ENSG00000136868_ENST00000374212|human|control|control (ssRNA)
RNA: GGGAGUUCUACAGUCCGACGAUCUCUGCUUGGUAUAAGCACAGUUGUUGGAGCCUGAGGAAAACCUGGCCAUCAACAAACCACAGCCUGAGUCUUUCCAAAGAGAAAGCUGGGCUUUUGCCCUUCUGGCCCAUGACUGGUAGACAACAGAGGAUUGAGCAUCA
B11: chr7:56126341:56126342:+_ENSG00000146731_ENST00000540286|hu_mus|hu_hu_hu_mus_True|1_1 (ssRNA)
RNA: GGGAGUUCUACAGUCCGACGAUCCAUGUUUCUCCUCUUGGCUCUGCGCAGAGCUACGAUCCCUUCUUUCGCAAGGGCAUCUAAGGAAAAGGGGUCAAUCCCCUUUUGAUUAAUAACGACAAAUCCUUUAUCUGAGUCGCCACACAACAGAGGAUUGAGCAUCA
B12: 18505097_18505217_937_CDS_ENSG00000101310_ENST00000262544|human|control|control (ssRNA)
RNA: GGGAGUUCUACAGUCCGACGAUCAAAUGUGAUCAGACCCACCAGAGCAUCUGGAGGAAGAAGACUCAGGGACAUCUGCAGGGACUCUUUGAGUGCUUGAAGGUCAUCUUCCUCCAGGCAUGUGUCAACCACAUAGAGAAAGAUCAACAGAGGAUUGAGCAUCA
B13: chr5:136386232:136386233:-_ENSMUSG00000051391_ENSMUST00000055808|mus_mus|FALSE|FALSE (ssRNA)
RNA: GGGAGUUCUACAGUCCGACGAUCAAACUGAGAACCCAUGGCUUGGCGUCAUGUAUGGCUGUCAUGUAUAAAUACUGUAAACUACAAUUGAGUGUUAAUACUGUCAACCCGUCAGAGACUUCCAAAUACAGGGCCACGUCUAACCAACAGAGGAUUGAGCAUCA
B14: chr8:104447970:104447971:+_ENSG00000164934_ENST00000297579|hu_hu|hu_hu_hu_mus_False|8_108 (ssRNA)
RNA: GGGAGUUCUACAGUCCGACGAUCAUAUACCUCCCUGCUUCGGCUCUUGUCCACAGGAAAGAUUCUAAUAGACUUAUCAAAGCUGGCAGACACAAAUUCCUUCCCAGUGGGAGAGUAGUCCACAUCAAGCACUGCAGACACGUGCAACAGAGGAUUGAGCAUCA
B15: chr7:149068622:149068623:-_ENSMUSG00000025139_ENSMUST00000001950|mus_hu|mus_mus_mus_hu_False|1_78 (ssRNA)
RNA: GGGAGUUCUACAGUCCGACGAUCGUGAGGCCUCUGAGUGUGGCUUGUGGUCUGUCCUGUCUGCAGUUUGUUAAUAUCACGGAACAUACCAUCUAGAACGUUCCAGUCCCGCCUGACACCUUCAUUCCCAAUGGAGAAUCUGCUCAACAGAGGAUUGAGCAUCA
B16: 36723423_36724012_341_3pUTR_ENSMUSG00000022285_ENSMUST00000022894|mouse|control|control (ssRNA)
RNA: GGGAGUUCUACAGUCCGACGAUCUCAAACGCUUCUGGCUGCAGGAAGCGGCCUUAGACCUUUUAAGGCUGGGAAAAGCGCGAGGCUGAAUGACGCCCUGCCUUUCCAGUCGCGAGCUCGGCGUCCACACCGUGACAGCCGCGGCAACAGAGGAUUGAGCAUCA
B17: chr1:39494564:39494565:+_ENSG00000168653_ENST00000372967|hu_hu|hu_hu_hu_mus_True|8_88 (ssRNA)
RNA: GGGAGUUCUACAGUCCGACGAUCAUGCAUUCGCCUCAUCGUUUUGUGCCGAAGCAAGCACUCUUCGAAGUCAUCGAACUCUAUCUUGCACUCCUUUUUCGCCCGGGUCCCACCGAUCCCGUGUGCACAUUCUAUCCACUCUUUCAACAGAGGAUUGAGCAUCA
B18: 125857629_125857749_267_5pUTR_ENSMUSG00000033904_ENSMUST00000106557|mouse|control|control (ssRNA)
RNA: GGGAGUUCUACAGUCCGACGAUCGAUCUCGUUUAUUUCCUGGGGUUUUGUGUAUCUUCUUCCACCAAAACGUAAACUCCAUAAGAACAGGUACCUUCUCAGUCUUGCUCACUGGUUCGCCAUGACACACAAUGGUGUCAGCACCAACAGAGGAUUGAGCAUCA
B19: chr11:86546118:86546119:-_ENSMUSG00000047126_ENSMUST00000103186|perfect_dup|motif|central (ssRNA)
RNA: GGGAGUUCUACAGUCCGACGAUCUGCAAAACAAAAUAACGUUGAUUCUUCUGCAUUUCCUUCCAUCUUAAACUGUGCAAAGCGGGCUGCAUGUCCUUCAAUGGGCUGAGACACUUUCCUAUCUACAGAAUAUAGCUGCAUAGCCAACAGAGGAUUGAGCAUCA
B20: chr11:106646565:106646566:-_ENSMUSG00000020719_ENSMUST00000021062|mus_hu|FALSE|FALSE (ssRNA)
RNA: GGGAGUUCUACAGUCCGACGAUCUCUGCUUCAUCAAGGACAAGGUAGGUUGUUCUUCUCAGAUUGGUUUUUCCACACUCUAAAAAGUCAAUCAGUCUUCCAGGUGUUGCAAUACAGAUUUCCACACCUCUCUCCAAAUCACGUCAACAGAGGAUUGAGCAUCA
B21: 100201843_100201963_4378_CDS_ENSMUSG00000052727_ENSMUST00000064762|mouse|control|control (ssRNA)
RNA: GGGAGUUCUACAGUCCGACGAUCAGAAACUGGGCUUUCUCUGUCUGGGAAGCCCUGCUUUCCAUUCUUCCCUUCAAAGGGGCUUUCGGAACGUCUGCCAAGAACCUUGCUAUCAGCACUCAGGAAGUCUUCAUAUGGGGACUCCAACAGAGGAUUGAGCAUCA
B22: chr14:54894545:54894546:-_ENSG00000100528_ENST00000216416|hu_hu|motif|central (ssRNA)
RNA: GGGAGUUCUACAGUCCGACGAUCCAUUUGGUGGCUUUUUGCAUGCACUUAACUGGACCAAUUCUUCUGUGUGUUGUUCGGAGAGCUCACCAAAACAUAGAUCAUGCCAUAUAGGUAGUAAAAAAAUGCUAGAAGAUAAAAAGCCAACAGAGGAUUGAGCAUCA

What follows are binders tested against T1, UNK ZnF1-3 (assay: nsRBNS (natural sequence RNA bind-n-seq); RBNS binding buffer (assumed for nsRBNS): 25 mM Tris pH 7.5, 150 mM KCl, 3 mM MgCl2, 0.01% Triton X-100, 500 ug/ml BSA, 20 U/ml SUPERase-In, 4 C; UNK is unkempt and MSI1 is Musashi-1; names of the RNAs are library labels; protein concentration not given here; high values mean tight binding).
Work on B1 yielded a binding signal of 0.997 enrichment R. With B2 the binding signal was 1.13 enrichment R. Work on B3 yielded a binding signal of 1.07 enrichment R. With B4 the binding signal was 1.82 enrichment R. B5 was tested, and the binding signal was 2.19 enrichment R. Binder B6 has a binding signal of 0.981 enrichment R. B7 gave a binding signal of 0.932 enrichment R. Binder B8 has a binding signal of 1.81 enrichment R. Binder B9 has a binding signal of 1.11 enrichment R. Work on B10 yielded a binding signal of 1.18 enrichment R. Binder B11 has a binding signal of 0.912 enrichment R. Work on B12 yielded a binding signal of 0.77 enrichment R. B13 was tested, and the binding signal was 1.33 enrichment R. For B14, the binding signal was 1.04 enrichment R. Work on B15 yielded a binding signal of 0.795 enrichment R. For B16, the binding signal was 0.524 enrichment R. Binder B17 has a binding signal of 0.594 enrichment R. Binder B18 has a binding signal of 0.374 enrichment R. Binder B19 has a binding signal of 1.29 enrichment R. In the case of B20, the binding signal is reported as 0.763 enrichment R. B21 was tested, and the binding signal was 0.648 enrichment R. For B22, the binding signal was 1.79 enrichment R.
